In patent US20250049939A1, “NOVEL FLT3 ANTIBODIES AND ANTIBODY-DRUG-CONJUGATES BASED THEREON, THERAPEUTIC METHODS AND USES THEREOF IN COMBINATION WITH TYROSINE KINASE INHIBITORS” (TUBULIS GmbH, priority 2021, published 2025):

Columns and labels:
[1] = molecular target: T1, human wildtype FLT3 (hFLT3 wt) (Homo sapiens, UniProt P36888); assay: Cell surface binding to Ba/F3 hFLT3 wt, flow cytometry; conditions: orthologue panel
T1 construct: expressed in transfected cells; host or cells: Ba/F3 cells, retrovirally transduced with MSCV-IRES-YFP (pMIY) vector
T1 sequence (P36888 27-993): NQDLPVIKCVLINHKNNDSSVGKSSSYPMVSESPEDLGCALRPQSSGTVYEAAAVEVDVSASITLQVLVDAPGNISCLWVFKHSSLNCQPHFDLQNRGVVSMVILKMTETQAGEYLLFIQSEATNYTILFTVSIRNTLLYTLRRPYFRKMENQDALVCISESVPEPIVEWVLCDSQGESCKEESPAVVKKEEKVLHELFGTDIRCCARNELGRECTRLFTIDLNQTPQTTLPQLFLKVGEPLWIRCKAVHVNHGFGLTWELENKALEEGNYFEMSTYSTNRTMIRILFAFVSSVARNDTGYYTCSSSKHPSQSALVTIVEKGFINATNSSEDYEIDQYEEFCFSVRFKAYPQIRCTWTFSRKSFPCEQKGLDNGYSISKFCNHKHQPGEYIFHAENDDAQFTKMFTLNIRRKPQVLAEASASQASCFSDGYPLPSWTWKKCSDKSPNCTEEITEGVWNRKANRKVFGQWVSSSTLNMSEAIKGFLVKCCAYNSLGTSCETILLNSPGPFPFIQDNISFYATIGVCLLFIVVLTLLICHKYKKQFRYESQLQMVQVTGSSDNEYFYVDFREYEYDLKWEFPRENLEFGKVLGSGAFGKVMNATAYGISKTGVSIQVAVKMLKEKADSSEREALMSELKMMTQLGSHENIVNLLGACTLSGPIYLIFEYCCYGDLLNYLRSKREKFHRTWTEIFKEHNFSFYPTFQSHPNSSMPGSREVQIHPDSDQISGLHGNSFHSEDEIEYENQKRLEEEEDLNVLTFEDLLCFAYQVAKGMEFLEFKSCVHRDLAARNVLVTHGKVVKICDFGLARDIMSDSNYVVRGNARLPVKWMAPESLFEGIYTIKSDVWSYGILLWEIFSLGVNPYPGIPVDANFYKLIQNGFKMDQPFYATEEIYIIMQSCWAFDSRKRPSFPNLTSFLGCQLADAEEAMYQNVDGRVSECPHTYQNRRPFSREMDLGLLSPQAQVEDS
Protocol: (§1) For antibody binding studies, cells were stained on ice with primary mouse, rat or human anti-FLT3 antibodies (in house) and secondary antibody Goat F(ab′)2 Anti-Human Ig-PE (2012-09), Goat Anti-Mouse IgG (H+L)-PE (1032-09) or Goat Anti-Rat IgG (H+L)-PE (3052-09) purchased from Southern Biotech. For internalization experiments, cells incubated with anti-FLT3 antibodies were washed and incubated for 30 min at 4° C. or 37° C. followed by staining with secondary antibody.
(§2) For FLT3 expression analysis, cells were stained on ice with primary mouse anti-FLT3-AF647 antibodies for 30 min. For antibody binding studies, cells were stained on ice with chimeric (20D9) or humanized anti-FLT3 antibodies (in house) or IgG1 control with or without Leu234Ala/Leu235Ala (LALA)-mutation in the Fc region and secondary antibody goat F(ab′)2 Anti-Human IgG-AF647 (2042-31) purchased from Southern Biotech for 30 min, respectively. Binding and expression were subsequently measured at the flow cytometer (BD FACSCanto II) and the results were evaluated with FlowJo version 10.8.1.

cynomolgus monkey FLT3 = assay: Cell surface binding to Ba/F3 cynoFLT3, flow cytometry; conditions: orthologue panel
Protocol: as §1
(§3) Murine FLT3 (OMu21985D, Genescript), human CD64 (RC207487), CD32 (RC205786) and CD16 (RC206429), were purchased from Origene. Cynomolgues monkey FLT3 gene was synthesized from XM_015439107.1 by Eurofins. The constructs were cloned into retroviral expression vector MSCV-IRES-YFP (pMIY) using the In-Fusion HD Cloning Plus Kit (Takara Bio, Saint-Germain-en-Laye, France). All FLT3 point mutations were generated using the QuikChange II XL Site-Directed Mutagenesis Kit (Agilent Technologies, Santa Clara, CA, USA) and correct sequence was confirmed by Sanger sequencing. […]
(§4) For FLT3 expression analysis, cells were stained on ice with primary mouse anti-FLT3-AF647 antibodies for 30 min. […] Binding and expression were subsequently measured at the flow cytometer (BD FACSCanto II) and the results were evaluated with FlowJo version 10.8.1.

murine FLT3 = molecular target: T2, murine FLT3 (Mus musculus, UniProt Q00342); assay: Cell surface binding to Ba/F3 mFLT3, flow cytometry; conditions: orthologue panel
T2 construct: host or cells: Ba/F3 cells, retrovirally transduced with MSCV-IRES-YFP (pMIY) vector
T2 sequence (Q00342 28-1000): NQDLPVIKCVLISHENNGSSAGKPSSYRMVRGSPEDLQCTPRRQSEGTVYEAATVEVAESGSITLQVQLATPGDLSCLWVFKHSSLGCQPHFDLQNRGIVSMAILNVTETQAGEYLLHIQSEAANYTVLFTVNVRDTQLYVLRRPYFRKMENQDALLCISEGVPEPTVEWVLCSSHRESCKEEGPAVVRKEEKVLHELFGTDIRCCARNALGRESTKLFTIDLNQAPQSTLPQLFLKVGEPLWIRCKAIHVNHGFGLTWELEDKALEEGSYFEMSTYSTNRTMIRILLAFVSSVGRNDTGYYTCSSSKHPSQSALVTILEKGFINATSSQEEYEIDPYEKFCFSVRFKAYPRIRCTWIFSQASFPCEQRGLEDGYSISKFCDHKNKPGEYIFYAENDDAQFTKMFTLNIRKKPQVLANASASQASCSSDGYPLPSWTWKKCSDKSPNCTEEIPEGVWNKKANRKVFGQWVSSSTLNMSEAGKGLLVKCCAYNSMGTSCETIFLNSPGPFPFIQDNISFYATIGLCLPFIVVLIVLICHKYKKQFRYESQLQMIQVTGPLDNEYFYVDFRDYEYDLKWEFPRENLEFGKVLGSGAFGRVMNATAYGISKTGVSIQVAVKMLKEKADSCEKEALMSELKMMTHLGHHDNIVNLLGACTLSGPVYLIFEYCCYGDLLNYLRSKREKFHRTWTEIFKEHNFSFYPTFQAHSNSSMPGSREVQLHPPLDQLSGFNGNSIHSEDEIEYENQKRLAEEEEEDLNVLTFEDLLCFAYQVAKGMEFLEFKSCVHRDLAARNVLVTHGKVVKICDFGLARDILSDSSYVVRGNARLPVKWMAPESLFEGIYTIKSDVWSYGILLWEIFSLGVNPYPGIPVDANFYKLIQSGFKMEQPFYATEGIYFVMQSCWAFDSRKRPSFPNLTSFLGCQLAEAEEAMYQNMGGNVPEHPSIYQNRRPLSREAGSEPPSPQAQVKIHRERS
Protocol: as §1, §3, §4

rat FLT3 = assay: Cell surface binding to Ba/F3 ratFLT3, flow cytometry; conditions: orthologue panel
Protocol: as §2

VEGFR-2 = molecular target: T3, VEGFR-2 (Homo sapiens, UniProt P35968); assay: Cell surface binding to Ba/F3 FLT3 homologue VEGFR-2; conditions: homologue panel
T3 construct: expressed in transfected cells; host or cells: Ba/F3 cells stably expressing pMIY construct
T3 sequence (P35968 20-1356, species assumed): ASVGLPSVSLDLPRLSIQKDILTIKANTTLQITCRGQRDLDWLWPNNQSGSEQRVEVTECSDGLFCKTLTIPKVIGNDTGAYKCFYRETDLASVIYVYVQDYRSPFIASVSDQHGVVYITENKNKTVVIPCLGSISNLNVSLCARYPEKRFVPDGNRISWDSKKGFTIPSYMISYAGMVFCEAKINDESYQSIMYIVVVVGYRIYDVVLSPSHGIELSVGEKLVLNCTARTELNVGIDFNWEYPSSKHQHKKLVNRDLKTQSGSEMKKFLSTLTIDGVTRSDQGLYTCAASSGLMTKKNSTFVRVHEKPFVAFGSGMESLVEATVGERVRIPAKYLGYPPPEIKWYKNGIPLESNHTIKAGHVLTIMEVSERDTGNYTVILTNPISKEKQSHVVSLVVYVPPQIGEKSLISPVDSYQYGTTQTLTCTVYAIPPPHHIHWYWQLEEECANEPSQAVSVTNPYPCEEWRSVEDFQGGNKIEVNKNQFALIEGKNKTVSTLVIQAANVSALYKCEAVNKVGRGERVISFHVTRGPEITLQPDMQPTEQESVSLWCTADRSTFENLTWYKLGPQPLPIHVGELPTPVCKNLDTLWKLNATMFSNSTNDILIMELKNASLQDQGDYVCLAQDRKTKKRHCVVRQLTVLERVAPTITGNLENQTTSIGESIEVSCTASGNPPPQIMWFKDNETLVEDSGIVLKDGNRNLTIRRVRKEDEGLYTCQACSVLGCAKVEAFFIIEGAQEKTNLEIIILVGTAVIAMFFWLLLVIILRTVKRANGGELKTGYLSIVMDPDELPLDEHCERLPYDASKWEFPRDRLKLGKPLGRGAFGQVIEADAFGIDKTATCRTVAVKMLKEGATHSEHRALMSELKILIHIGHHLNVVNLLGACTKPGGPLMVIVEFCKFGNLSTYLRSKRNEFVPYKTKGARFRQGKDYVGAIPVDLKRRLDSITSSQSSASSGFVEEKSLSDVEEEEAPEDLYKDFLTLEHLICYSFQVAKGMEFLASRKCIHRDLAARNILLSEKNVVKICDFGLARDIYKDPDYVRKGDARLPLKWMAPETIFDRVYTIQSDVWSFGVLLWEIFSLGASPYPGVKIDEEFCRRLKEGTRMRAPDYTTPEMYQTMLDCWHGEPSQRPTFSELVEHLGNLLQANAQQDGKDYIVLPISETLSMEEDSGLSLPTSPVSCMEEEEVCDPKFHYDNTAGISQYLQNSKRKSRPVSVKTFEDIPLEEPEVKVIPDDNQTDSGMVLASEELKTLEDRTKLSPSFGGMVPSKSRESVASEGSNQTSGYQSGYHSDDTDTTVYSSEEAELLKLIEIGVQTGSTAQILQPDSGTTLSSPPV
Protocol: as §2

PDGFRα = molecular target: T4, PDGFRα (Homo sapiens, UniProt P16234); assay: Cell surface binding to Ba/F3 FLT3 homologue PDGFRα; conditions: homologue panel
T4 construct: expressed in transfected cells; host or cells: Ba/F3 cells stably expressing pMIY construct
T4 sequence (P16234 24-1089, species assumed): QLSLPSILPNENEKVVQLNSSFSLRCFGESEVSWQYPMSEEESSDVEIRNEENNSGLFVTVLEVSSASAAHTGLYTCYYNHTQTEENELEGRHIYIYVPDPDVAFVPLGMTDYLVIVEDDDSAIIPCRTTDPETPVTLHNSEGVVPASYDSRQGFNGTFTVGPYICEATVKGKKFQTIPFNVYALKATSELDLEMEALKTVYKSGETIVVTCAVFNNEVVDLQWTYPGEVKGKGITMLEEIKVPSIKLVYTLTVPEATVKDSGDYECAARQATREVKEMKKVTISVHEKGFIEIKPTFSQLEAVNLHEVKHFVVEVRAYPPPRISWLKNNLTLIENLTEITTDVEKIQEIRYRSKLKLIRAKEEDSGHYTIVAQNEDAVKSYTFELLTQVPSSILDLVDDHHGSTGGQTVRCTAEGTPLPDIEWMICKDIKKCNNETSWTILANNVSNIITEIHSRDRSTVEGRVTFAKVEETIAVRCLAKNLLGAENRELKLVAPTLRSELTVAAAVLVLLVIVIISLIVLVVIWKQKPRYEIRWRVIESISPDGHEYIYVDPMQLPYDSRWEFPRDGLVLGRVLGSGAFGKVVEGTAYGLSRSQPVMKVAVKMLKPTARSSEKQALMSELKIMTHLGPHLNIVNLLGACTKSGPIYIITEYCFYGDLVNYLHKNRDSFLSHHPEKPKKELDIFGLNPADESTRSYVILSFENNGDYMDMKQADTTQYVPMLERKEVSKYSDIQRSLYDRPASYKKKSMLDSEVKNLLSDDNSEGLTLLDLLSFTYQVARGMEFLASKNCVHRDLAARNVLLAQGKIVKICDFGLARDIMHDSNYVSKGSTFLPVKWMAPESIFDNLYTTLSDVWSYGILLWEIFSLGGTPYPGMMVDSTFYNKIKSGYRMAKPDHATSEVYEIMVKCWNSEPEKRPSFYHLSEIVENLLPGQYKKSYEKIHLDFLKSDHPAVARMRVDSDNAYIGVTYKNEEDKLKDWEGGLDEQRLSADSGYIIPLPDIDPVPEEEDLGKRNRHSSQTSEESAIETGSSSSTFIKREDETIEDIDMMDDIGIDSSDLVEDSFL
Protocol: as §2

c-KIT = molecular target: T5, c-KIT (Homo sapiens, UniProt P10721); assay: Cell surface binding to Ba/F3 FLT3 homologue c-KIT; conditions: homologue panel
T5 construct: expressed in transfected cells; host or cells: Ba/F3 cells stably expressing pMIY construct
T5 sequence (P10721 26-976): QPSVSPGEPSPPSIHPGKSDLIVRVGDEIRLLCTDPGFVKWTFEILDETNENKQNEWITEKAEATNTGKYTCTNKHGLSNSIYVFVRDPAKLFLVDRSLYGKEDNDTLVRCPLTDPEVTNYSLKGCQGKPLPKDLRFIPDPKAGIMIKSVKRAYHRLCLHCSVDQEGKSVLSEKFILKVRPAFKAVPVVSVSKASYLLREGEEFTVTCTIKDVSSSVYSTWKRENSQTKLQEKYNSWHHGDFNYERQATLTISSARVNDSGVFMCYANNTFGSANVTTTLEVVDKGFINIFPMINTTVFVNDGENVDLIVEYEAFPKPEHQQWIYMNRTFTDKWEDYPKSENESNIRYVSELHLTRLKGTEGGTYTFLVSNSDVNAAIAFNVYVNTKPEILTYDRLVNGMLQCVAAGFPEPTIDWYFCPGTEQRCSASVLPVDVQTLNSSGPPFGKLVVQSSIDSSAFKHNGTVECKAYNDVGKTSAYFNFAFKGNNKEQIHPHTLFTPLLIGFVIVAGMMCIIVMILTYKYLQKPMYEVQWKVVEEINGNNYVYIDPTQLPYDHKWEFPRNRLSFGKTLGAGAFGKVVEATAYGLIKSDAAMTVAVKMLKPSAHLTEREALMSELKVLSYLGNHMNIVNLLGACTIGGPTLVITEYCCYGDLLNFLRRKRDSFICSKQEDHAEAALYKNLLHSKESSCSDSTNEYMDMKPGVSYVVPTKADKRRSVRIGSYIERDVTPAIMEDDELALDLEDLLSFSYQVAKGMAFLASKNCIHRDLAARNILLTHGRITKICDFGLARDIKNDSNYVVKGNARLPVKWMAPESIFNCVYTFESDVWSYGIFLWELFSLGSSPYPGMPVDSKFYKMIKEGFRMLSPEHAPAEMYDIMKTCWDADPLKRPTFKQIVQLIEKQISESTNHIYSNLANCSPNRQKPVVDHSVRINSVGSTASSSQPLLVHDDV
Protocol: as §2

CSF1R = molecular target: T6, CSF1R (Homo sapiens, UniProt P07333); assay: Cell surface binding to Ba/F3 FLT3 homologue CSF1R; conditions: homologue panel
T6 construct: expressed in transfected cells; host or cells: Ba/F3 cells stably expressing pMIY construct
T6 sequence (P07333 20-972, species assumed): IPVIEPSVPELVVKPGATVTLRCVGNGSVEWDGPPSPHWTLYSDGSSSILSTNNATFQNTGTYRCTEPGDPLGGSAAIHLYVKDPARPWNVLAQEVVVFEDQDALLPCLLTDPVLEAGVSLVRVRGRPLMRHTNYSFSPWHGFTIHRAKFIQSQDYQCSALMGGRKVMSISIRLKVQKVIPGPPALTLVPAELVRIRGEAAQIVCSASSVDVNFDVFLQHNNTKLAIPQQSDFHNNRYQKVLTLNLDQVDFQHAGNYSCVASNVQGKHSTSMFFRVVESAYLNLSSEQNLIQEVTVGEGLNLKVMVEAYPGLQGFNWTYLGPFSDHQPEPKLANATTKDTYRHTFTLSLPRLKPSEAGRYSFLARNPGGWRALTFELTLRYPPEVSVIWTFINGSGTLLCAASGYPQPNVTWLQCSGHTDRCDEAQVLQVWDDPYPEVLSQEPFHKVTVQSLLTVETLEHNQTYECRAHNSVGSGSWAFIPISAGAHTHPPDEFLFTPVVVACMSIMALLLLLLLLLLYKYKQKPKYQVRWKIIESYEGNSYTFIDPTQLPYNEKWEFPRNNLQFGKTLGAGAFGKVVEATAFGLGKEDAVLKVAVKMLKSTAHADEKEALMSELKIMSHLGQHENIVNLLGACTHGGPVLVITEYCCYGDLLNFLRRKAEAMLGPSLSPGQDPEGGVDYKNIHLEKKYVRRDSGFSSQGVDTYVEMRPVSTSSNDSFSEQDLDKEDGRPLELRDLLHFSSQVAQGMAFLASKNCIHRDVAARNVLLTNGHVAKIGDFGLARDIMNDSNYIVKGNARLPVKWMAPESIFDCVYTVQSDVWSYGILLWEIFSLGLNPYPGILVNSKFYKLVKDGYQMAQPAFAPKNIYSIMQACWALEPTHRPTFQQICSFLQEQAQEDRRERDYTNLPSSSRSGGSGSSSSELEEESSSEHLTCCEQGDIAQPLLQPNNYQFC
Protocol: as §2

- Binding to mouse FLT3 (murine FLT3): does not bind
- Binding to VEGFR-2 (VEGFR-2): does not bind
- Binding to PDGFRα (PDGFRα): does not bind
- Binding to c-KIT (c-KIT): does not bind
- Binding to CSF1R (CSF1R): does not bind
B1: #3: humanized clone 3 of 20D9 (VH3 + VK1), lead candidate; heavy chain SEQ ID NO: 83, light chain SEQ ID NO: 88 (antibody)
heavy: QVQLVESGGGVVQPGRSLRLSCAASGFTFNNYWMTWVRQAPGKGLEWIASITKTGGGTYYADSVKGRFTISRDNSKNTLYLQMNSLRAEDTAVYYCTTLQQLGVMDAWGQGTLVTVSS[human IgG1 constant region left out]
light: DIQMTQSPSVLSASVGDRVTINCRASQNINKELNWYQQKLGEAPKLLIYNTNNLQSGVPSRFSGSGSGTDYTLTISSLQPEDVATYFCFQHKSWPLTFGSGTKLEIKRTVAAPSVFIFPPSDEQLKSGTASVVCLLNNFYPREAKVQWKVDNALQSGNSQESVTEQDSKDSTYSLSSTLTLSKADYEKHKVYACEVTHQGLSSPVTKSFNRGEC
modifications: Humanized clone 3 of 20D9, heavy chain sequence without a signalpeptide; Humanized clone 3 of 20D9, light chain sequence without a signalpeptide
- Binding to human FLT3 [1]: exclusively binds to FLT3 from human and cynomolgous monkey
- Binding to cynomolgous monkey FLT3 (cynomolgus monkey FLT3): exclusively binds to FLT3 from human and cynomolgous monkey
- Binding to rat FLT3 (rat FLT3): does not bind
